These results are taken from the supplement of paper PMC8728848.

The list shows a part of the results.

What all share (test): glycan array binding signal (z-score within array); higher = stronger binding
Holding throughout (conditions): glycan notation: IUPAC condensed, linker removed

For experiment [1], the target named is Gal(b1-4)GlcNAc(b1-3)Gal(b1-4)GlcNAc(b1-3)Gal(b1-4)GlcNAc(b1-3)Gal(b1-4)GlcNAc(b1-2)Man(a1-3)[Gal(b1-4)GlcNAc(b1-3)Gal(b1-4)GlcNAc(b1-3)Gal(b1-4)GlcNAc(b1-3)Gal(b1-4)GlcNAc(b1-2)Man(a1-6)]Man(b1-4)GlcNAc(b1-4)[Fuc(a1-6)]GlcNAc. The method, boiled down:
(§1)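 Negative Z-scores can be read as non-binding. The Z-score is calculated within each array and then averaged across arrays of one protein sequence at different concentrations or buffers and across linkers. Arrays, 3228 in all, were curated from the Consortium for Functional Glycomics database and kept only where the protein sequence was available.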

In experiment [2] the target is Gal(b1-4)GlcNAc(b1-3)Gal(b1-4)GlcNAc(b1-3)Gal(b1-4)GlcNAc(b1-3)Gal(b1-4)GlcNAc(b1-2)[Gal(b1-4)GlcNAc(b1-3)Gal(b1-4)GlcNAc(b1-3)Gal(b1-4)GlcNAc(b1-3)Gal(b1-4)GlcNAc(b1-6)]Man(a1-6)[Gal(b1-4)GlcNAc(b1-3)Gal(b1-4)GlcNAc(b1-3)Gal(b1-4)GlcNAc(b1-3)Gal(b1-4)GlcNAc(b1-2)Man(a1-3)]Man(b1-4)GlcNAc(b1-4)[Fuc(a1-6)]GlcNAc. The method, boiled down: as §1
Experiment [3] concerns the target Gal(b1-4)GlcNAc(b1-3)Gal(b1-4)GlcNAc(b1-3)Gal(b1-4)GlcNAc(b1-3)Gal(b1-4)GlcNAc(b1-3)Gal(b1-4)GlcNAc(b1-2)Man(a1-3)[Gal(b1-4)GlcNAc(b1-3)Gal(b1-4)GlcNAc(b1-3)Gal(b1-4)GlcNAc(b1-3)Gal(b1-4)GlcNAc(b1-3)Gal(b1-4)GlcNAc(b1-2)Man(a1-6)]Man(b1-4)GlcNAc(b1-4)GlcNAc. The method, boiled down: as §1
Experiment [4] deals with Gal(b1-4)GlcNAc(b1-3)Gal(b1-4)GlcNAc(b1-3)Gal(b1-4)GlcNAc(b1-3)Gal(b1-4)GlcNAc(b1-3)Gal(b1-4)GlcNAc(b1-2)Man(a1-3)[Gal(b1-4)GlcNAc(b1-3)Gal(b1-4)GlcNAc(b1-3)Gal(b1-4)GlcNAc(b1-3)Gal(b1-4)GlcNAc(b1-3)Gal(b1-4)GlcNAc(b1-2)Man(a1-6)]Man(b1-4)GlcNAc(b1-4)[Fuc(a1-6)]GlcNAc. An outline of the steps: as §1
Experiment [5] deals with Gal(b1-4)GlcNAc(b1-3)Gal(b1-4)GlcNAc(b1-3)Gal(b1-4)GlcNAc(b1-3)Gal(b1-4)GlcNAc(b1-3)Gal(b1-4)GlcNAc(b1-2)[Gal(b1-4)GlcNAc(b1-3)Gal(b1-4)GlcNAc(b1-3)Gal(b1-4)GlcNAc(b1-3)Gal(b1-4)GlcNAc(b1-3)Gal(b1-4)GlcNAc(b1-6)]Man(a1-6)[Gal(b1-4)GlcNAc(b1-3)Gal(b1-4)GlcNAc(b1-3)Gal(b1-4)GlcNAc(b1-3)Gal(b1-4)GlcNAc(b1-3)Gal(b1-4)GlcNAc(b1-2)Man(a1-3)]Man(b1-4)GlcNAc(b1-4)[Fuc(a1-6)]GlcNAc. The method, boiled down: as §1

Experiment [6] concerns the target Gal(b1-4)GlcNAc(b1-3)Gal(b1-4)GlcNAc(b1-3)Gal(b1-4)GlcNAc(b1-3)Gal(b1-4)GlcNAc(b1-3)Gal(b1-4)GlcNAc(b1-3)Gal(b1-4)GlcNAc(b1-2)Man(a1-3)[Gal(b1-4)GlcNAc(b1-3)Gal(b1-4)GlcNAc(b1-3)Gal(b1-4)GlcNAc(b1-3)Gal(b1-4)GlcNAc(b1-3)Gal(b1-4)GlcNAc(b1-3)Gal(b1-4)GlcNAc(b1-2)Man(a1-6)]Man(b1-4)GlcNAc(b1-4)GlcNAc. The method, boiled down:
as §1

Experiment [7] has as its target Gal(b1-4)GlcNAc(b1-3)Gal(b1-4)GlcNAc(b1-3)GalNAc. An outline of the steps:
as §1

For experiment [8], the target named is Gal(b1-4)GlcNAc(b1-3)Gal(b1-4)GlcNAc(b1-3)[Gal(b1-4)GlcNAc(b1-3)Gal(b1-4)GlcNAc(b1-6)]GalNAc. The method, boiled down: as §1
Experiment [9] addresses Gal(b1-4)GlcNAc(b1-3)Gal(b1-4)GlcNAc(b1-6)[Gal(b1-3)]GalNAc. The method, boiled down: as §1
Experiment [10] addresses Gal(b1-4)GlcNAc(b1-3)Gal(b1-4)[Fuc(a1-3)]GlcNAc(b1-3)Gal(b1-4)[Fuc(a1-3)]GlcNAc. The method, boiled down:
as §1

Experiment [11] concerns the target Gal(b1-4)GlcNAc(b1-3)GalNAc. The method, boiled down:
as §1

The target in experiment [12] is Gal(b1-4)GlcNAc(b1-3)[Fuc(a1-3)GlcNAc(b1-6)]Gal(b1-4)Glc. An outline of the steps: as §1
The target of experiment [13] is Gal(b1-4)GlcNAc(b1-3)[Gal(b1-4)GlcNAc(b1-6)]Gal(b1-4)GlcNAc. The method, boiled down:
as §1

For experiment [14], the target named is Gal(b1-4)GlcNAc(b1-3)[GlcNAc(b1-6)]Gal(b1-4)GlcNAc. An outline of the steps: as §1
Experiment [15] deals with Gal(b1-4)GlcNAc(b1-6)Gal(b1-4)GlcNAc. The method, boiled down:
as §1

Experiment [16] deals with Gal(b1-4)GlcNAc(b1-6)GalNAc. An outline of the steps: as §1
In experiment [17] the target is Gal(b1-4)GlcNAc(b1-6)[Gal(b1-3)]GalNAc. The method, boiled down:
as §1

Experiment [18] addresses Gal(b1-4)GlcNAc(b1-6)[Gal(b1-4)GlcNAc(b1-3)]GalNAc. An outline of the steps: as §1
In another experiment the target is Gal(b1-4)GlcNAc6P. The method, boiled down:
as §1

The target in the next experiment is Gal(b1-6)Gal. The method, boiled down: as §1
For a further experiment, the target named is Gal3S(b1-3)GalNAc. An outline of the steps: as §1
For another experiment, the target named is Gal3S(b1-3)GlcNAc. An outline of the steps: as §1
For experiment [19], the target named is Gal3S(b1-3)[Fuc(a1-4)]GlcNAc. The method, boiled down: as §1

B1: MPA (Maclura pomifera), P18674 (protein)
chain: GVTFDDGAYTGIREINFEYNSETAIGGLRVTYDLNGMPFVAEDHKSFITGFKPVKISLEFPSEYIVEVSGYVGKVEGYTVIRSLTFKTNKQTYGPYGVTNGTPFSLPIENGLIVGFKGSIGYWLDYFSIYLSL
Take B1: the “glycan array binding signal (z-score)” value in experiment [1] was 4.26; in experiment [2], 0.593; in [3] it was 0.258; in experiment [4] it was -0.028; in experiment [5], 0.427; in experiment [6], -0.46. Besides, the “glycan array binding signal (z-score)” value is 1.15 in experiment [7]; 4 in experiment [8]; 2.93 in experiment [9]; -0.197 in experiment [10]; -0.203 in [11]; -0.067 in experiment [12]. Besides, the “glycan array binding signal (z-score)” value is -0.185 in [13]; -0.172 in experiment [14]; -0.251 in experiment [15]; -0.203 in experiment [16]; -0.192 in [17]; -0.28 in experiment [18]. For the same molecule, the “glycan array binding signal (z-score)” value is -0.139 with Gal(b1-4)GlcNAc6P; -0.265 in the experiment with Gal(b1-6)Gal; -0.236 with Gal3S(b1-3)GalNAc; -0.257 with Gal3S(b1-3)GlcNAc; -0.185 in [19].
